Article PMC4336329 (PLoS ONE, 2015)
Screen size: about 310,000 compounds; about 2,200 (0.71%) showed an effect of 50% or more. The effect is printed as a negative number. This is one part of the list.

Target: human ether-à-go-go-related gene (hERG) potassium channel (human, UniProt Q12809)
Experiment: primary screen, population patch clamp on CHO cells stably expressing hERG

human ether-à-go-go-related gene (hERG) potassium channel, sequence (Q12809 whole entry, looked up): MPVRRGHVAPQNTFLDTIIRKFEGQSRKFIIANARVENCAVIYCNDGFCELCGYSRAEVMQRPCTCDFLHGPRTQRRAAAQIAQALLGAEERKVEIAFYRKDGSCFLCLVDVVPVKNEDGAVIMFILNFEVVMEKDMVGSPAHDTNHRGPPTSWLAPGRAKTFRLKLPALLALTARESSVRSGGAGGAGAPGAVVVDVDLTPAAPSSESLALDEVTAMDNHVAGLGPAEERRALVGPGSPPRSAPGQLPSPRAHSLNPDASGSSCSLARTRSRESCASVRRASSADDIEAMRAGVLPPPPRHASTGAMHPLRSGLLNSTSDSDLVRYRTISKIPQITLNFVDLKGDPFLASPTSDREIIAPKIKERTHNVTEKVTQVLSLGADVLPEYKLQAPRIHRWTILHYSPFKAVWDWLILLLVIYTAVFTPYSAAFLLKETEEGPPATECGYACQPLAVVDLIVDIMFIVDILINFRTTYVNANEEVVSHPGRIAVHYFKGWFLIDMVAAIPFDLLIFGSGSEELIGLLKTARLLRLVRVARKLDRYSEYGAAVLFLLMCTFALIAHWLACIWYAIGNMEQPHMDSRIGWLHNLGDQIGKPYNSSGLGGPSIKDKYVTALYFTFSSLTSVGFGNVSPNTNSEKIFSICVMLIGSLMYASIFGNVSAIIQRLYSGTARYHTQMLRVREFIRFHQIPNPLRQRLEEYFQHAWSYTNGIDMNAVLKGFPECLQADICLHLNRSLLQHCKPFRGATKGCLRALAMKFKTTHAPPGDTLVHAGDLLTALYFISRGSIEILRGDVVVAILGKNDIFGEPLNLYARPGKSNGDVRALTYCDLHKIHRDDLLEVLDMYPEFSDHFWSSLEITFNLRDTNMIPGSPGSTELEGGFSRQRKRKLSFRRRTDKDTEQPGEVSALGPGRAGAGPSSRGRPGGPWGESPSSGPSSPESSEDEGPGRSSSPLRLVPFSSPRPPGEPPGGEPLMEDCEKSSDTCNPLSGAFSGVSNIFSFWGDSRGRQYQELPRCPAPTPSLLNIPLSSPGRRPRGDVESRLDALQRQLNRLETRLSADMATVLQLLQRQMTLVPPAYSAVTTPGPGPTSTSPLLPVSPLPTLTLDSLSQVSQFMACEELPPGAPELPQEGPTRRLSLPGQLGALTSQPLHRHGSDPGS

Row | Compound | hERG current change (%, negative = inhibition) at 1uM
1 | Cc1cc(C)n(C(=O)c2ccc(C)c(S(=O)(=O)N3CCCCC3)c2)n1 | 9.6%
2 | Cc1cccc(C)c1NC(=O)COC(=O)CNC(=O)C1CCCCC1 | 12.2%
3 | CC(=O)c1sc(NC(=O)Cc2c(F)cccc2Cl)nc1C | 7.88%
4 | CN1CCN(CC(=O)Nc2cccc(S(=O)(=O)N(C)c3ccccc3)c2)CC1 | 1.01%
5 | CCOC(=O)c1ccc2[nH]cc(C(C)=O)c(=O)c2c1 | 3.52%
6 | C/C(=N\NC(=O)c1cccc(S(=O)(=O)N2CCCC2)c1)c1ccc(OCC(=O)N(C)C)cc1 | 0.865%
7 | COc1cccc(N2CCN(C(=O)c3cccc(N4C(=O)NC5CC4(C)Oc4c(OC)cccc45)c3)CC2)c1 (stereo not drawn) | 14.7%
8 | CC(=O)Oc1ccc2c3c(c(=O)oc2c1C)CCCC3 | 15.5%
9 | COc1ccc(N2C(=O)CC(N3CCC(c4nc5ccccc5[nH]4)CC3)C2=O)cc1 (stereo not drawn) | -2.22%
10 | CC1=C(C)CC(C(=O)NCc2ccccn2)C(C(=O)O)C1 (stereo not drawn) | 4.67%
11 | CCCCn1c(N)c(NCc2ccccc2)c(=O)[nH]c1=O | 14.7%
12 | CCCCn1c(N)c(N(CC(C)C)C(=O)c2ccc(S(=O)(=O)N3CCC(C)CC3)cc2)c(=O)[nH]c1=O | 3.98%
13 | Cc1cc(NC(=O)CN2CCN(Cc3ccccc3)CC2)nc2c1c(=O)oc1ccccc12 | 2%
14 | CCOc1ccc(C(C(=O)NC(C)(C)C)N(CCOC)C(=O)CCC(=O)Nc2nccs2)cc1 (stereo not drawn) | 17.2%
15 | CCOc1cc(Cl)c(NC(C)=O)cc1OCC | 10.6%
16 | CN(C)CCOC(=O)C12CC3CC(C1)CC(C(=O)OCCN(C)C)(C3)C2.Cl | 13.2%
17 | COc1cccc(/C=C2/SC(=S)N(CC(=O)NC3C=CS(=O)(=O)C3)C2=O)c1 (stereo not drawn) | 28.9%
18 | CC1Cc2nc(SCC(=O)Nc3ccc4c(c3)OCCO4)n(C)c(=O)c2S1 (stereo not drawn) | 12.4%
19 | COc1ccc(F)cc1S(=O)(=O)NCc1ccccc1 | 5.45%
20 | CN(C)CCCNC(=O)C(=O)NCC1OCCN1S(=O)(=O)c1cc(F)ccc1F (stereo not drawn) | 0.429%
21 | CCn1c(SCC(=O)Nc2nnc(C)s2)nnc1-c1ccncc1 | 8.28%
22 | Cc1ccc2cc(CN(CC3CCCO3)C(=O)Nc3ccccc3F)c3nnnn3c2c1 (stereo not drawn) | 2.93%

Row | Compound | hERG current change (%, negative = inhibition) at 1uM
23 | O=C(CCCC(=O)OCC(=O)c1cccs1)Nc1ccc(Oc2ccccc2)cc1 | 3.88%
24 | CC(O)c1nc2ccc(Cc3ccc4nc(C(C)O)[nH]c4c3)cc2[nH]1 (stereo not drawn) | -2.06%
25 | COc1ccc(NC(=O)CCCC(=O)O)cc1Cl | 7.49%
26 | O=C(O)CC(C(=O)O)c1ccc(OCCCCOc2ccc(C(CC(=O)O)C(=O)O)cc2)cc1 (stereo not drawn) | 14.7%
27 | COc1cc(/C=N/n2c(SC)nnc(C(C)(C)C)c2=O)ccc1O | 2.9%
28 | COc1ccc(C(=O)NC(=O)COC(=O)c2ccc3ncsc3c2)cc1 | 12.4%
29 | O=C1CC(c2ccc(Cl)cc2)CC(=O)C1CS(=O)(=O)c1ccccc1 (stereo not drawn) | 11.4%
30 | Cc1sc2nc(SCC(=O)NCc3cccs3)[nH]c(=O)c2c1C | 10.8%
31 | COc1cccc(CC(NC(C)=O)C(=O)NC2CCN(S(=O)(=O)c3ccc4ccccc4c3)CC2)c1 (stereo not drawn) | 8.45%
32 | CC(=O)NCCc1nc2cc(NC(=O)Nc3ccccc3)ccc2n1C | -20.3%
33 | CC(C)c1nnc(NC(=O)COc2ccc3c(c2)OCO3)s1 | 17.9%
34 | COC(=O)C1=C(C)N(C)C(=O)NC1c1c(OC)ccc2ccccc12 (stereo not drawn) | 13.3%
35 | CN(c1ccccc1)S(=O)(=O)c1ccc2[nH]c(=O)oc2c1 | 19.7%
36 | O=C(c1cc2ccccc2oc1=O)N(Cc1cccs1)C1CCS(=O)(=O)C1 (stereo not drawn) | 9.9%
37 | Cc1cc(C(=O)NC2CCCc3ccccc32)c(C)o1 (stereo not drawn) | 6.33%
38 | Cc1cc(C)c(OCCN2C(=O)NC(C)(C)C2=O)c(Cl)c1 | 14.8%
39 | O=C(CCCCCNc1nc(=S)[nH]c2ccccc12)NCCc1ccccc1 | 3.87%
40 | CC(C)c1ccc(NC(=O)c2ccccc2NC(=O)C2CC=CCC2C(=O)O)cc1 (stereo not drawn) | 9.12%
41 | CCCC(=O)NNC(=O)c1ccoc1C | 6.13%
42 | COc1cccc(-c2cc(C(=O)NCCc3ccccc3)no2)c1 | 13.8%
43 | CCc1noc(C)c1C(=O)NC1CCCc2c1cnn2-c1cc(C)cc(C)c1 (stereo not drawn) | 11.1%
44 | CCN(Cc1ccncc1)C(=O)CSc1ccc2ccccc2c1 | 3.12%

Row | Compound | hERG current change (%, negative = inhibition) at 1uM
45 | CCCCCC(=O)NNC(=S)NC(=O)c1ccc([N+](=O)[O-])cc1 | 2.2%
46 | CC(C)CCNC(=O)CCn1c(=S)oc2ccccc21 | 4.63%
47 | COC(=O)Cc1cc(=O)[nH]c(/N=C(\N)Nc2ccc(C(C)C)cc2)n1 | 10.9%
48 | C=CCN1C(=NC(=O)COc2ccc(Cl)cc2)SC2CS(=O)(=O)CC21 (stereo not drawn) | 5.94%
49 | C=CCOC(=O)C1=C[C@@H](c2ccc(C(F)(F)F)cc2)C[C@@H](OCCCCO)O1 | 6.52%
50 | Cc1ccc(S(=O)(=O)N/N=C\c2ccccc2OCc2ccccc2)cc1 | 18.4%
51 | CC(C)(C)NC(=O)Nc1ccc2nccnc2c1 | 1.63%
52 | O=C/C=C/c1c(-c2ccccc2)cc2oc3ccccc3cc1-2 | 11.7%
53 | Cc1ccc(CNC(=O)Cc2ccc(NC3=NC4CS(=O)(=O)CC4S3)cc2)cc1 (stereo not drawn) | 10.3%
54 | COc1ccc(C2CC(c3cccs3)=NN2C(=O)CCC(=O)O)cc1OC (stereo not drawn) | 4.43%
55 | CC(C)Oc1ccc(CNC2CCOC(C)(C)C2)cc1 (stereo not drawn) | 15.6%
56 | CCOc1ccccc1N(C(=O)CNC(=O)c1ccco1)C(C(=O)NC1CCCC1)c1ccncc1 (stereo not drawn) | 12.1%
57 | CCOc1ccc2nc(N/C(N)=N/C(=S)Nc3ccc(C)c(C)c3)nc(C)c2c1 | 6.79%
58 | Cc1ccc(S(=O)(=O)N2CCC(C(=O)NCCc3ccccc3)CC2)cc1 | 0.622%
59 | NC(=O)[C@@H]1CCCN1Cc1nc(Cc2cccc(C(F)(F)F)c2)no1 | 7.55%
60 | N#CCSc1nnc(CNc2ccc(F)cc2)o1 | 6.74%
61 | CC(C)c1ccc(Nc2cnn(C34CC5CC(CC(CC(=O)O)(C5)C3)C4)c(=O)c2Cl)cc1 | 7.89%
62 | Cc1noc(C)c1CSc1ccccc1C(=O)N1CCN(c2ccccc2)CC1 | 9.21%
63 | CCn1c(-c2nn(-c3ccccc3)ccc2=O)n[nH]c1=S | 9.34%
64 | Cn1c2ccccc2c(=O)c2ccc(C#CC3(N)CCCCC3)cc21 | 0.0403%
65 | Cc1ccc(SCCC(=O)N(C)C)cc1 | 2.1%
66 | Cc1cc(C(=O)N2CCCC(C(=O)c3cccc4ccccc34)C2)nc(C)n1 (stereo not drawn) | 12.6%

Row | Compound | hERG current change (%, negative = inhibition) at 1uM
67 | CCc1nc(SCC(=O)Nc2nccs2)c2oc3ccccc3c2n1 | 11.8%
68 | CC(=O)NC1=NN(C(C)=O)C(c2ccccn2)S1 (stereo not drawn) | 3.87%
69 | CCCc1noc2c1/C(=N\O)CC(CC(C)SCC)C2 (stereo not drawn) | 9.48%
70 | CCCn1c(=N)n(CC(O)COc2ccc(C)cc2)c2ccccc21.Cl (stereo not drawn) | -68%
71 | O=C(Cc1ccccc1)Nc1cccc(-c2nnc(-c3ccco3)o2)c1 | -0.0978%
72 | O=C(NC1CCCCC1)C(c1ccco1)N(CCc1ccccc1)C(=O)C(F)(F)F (stereo not drawn) | 7.77%
73 | CCc1nnc(NC(=O)c2cccc(OC)c2)s1 | 12.9%
74 | COc1ccc(C(=O)/C=C/c2ccc(OC(=O)c3cc(OC)c(OC)c(OC)c3)cc2)cc1 | 1.08%
75 | O=C(C1CCCN(CCCc2ccccc2)C1)N1CCCCCC1.O=C(O)C(=O)O (stereo not drawn) | -5.81%
76 | COC(=O)c1ccc(C(c2c(C)n(C)n(-c3ccccc3)c2=O)c2c(C)n(C)n(-c3ccccc3)c2=O)cc1 | 14.9%
77 | CCOC(=O)C1CCN(C(=O)CCCNC(=O)Cn2cnc3sc(C)c(C)c3c2=O)CC1 | 14.1%
78 | COc1cccc(OCC(Cn2c(C)nc3ccccc32)OC(C)=O)c1 (stereo not drawn) | -2.07%
79 | Cc1onc(-c2ccccc2)c1C(=O)OCC(=O)N(C)c1c(N)n(Cc2ccccc2)c(=O)[nH]c1=O | 3.73%
80 | COc1ccc(C(=O)/C(C)=N/O)cc1OC | 4.5%
81 | CSc1ccccc1NC(=O)CN(C)Cc1cccc(Cl)c1.O=C(O)C(=O)O | 14.9%
82 | Cc1ccc(S(=O)(=O)c2c(N)n(NC(=O)C3CC3)c3nc4ccccc4nc23)cc1 | 8.33%
83 | COc1ccc(S(=O)(=O)NCCC(=O)NCc2ccccc2)cc1 | -2.71%
84 | CCOc1cc2c(cc1OCC)C(C(=O)O)C(c1ccc(OC)c(O)c1)N(C)C2=O (stereo not drawn) | 16%
85 | O=C(NC1CCN(C(=O)N2CCOCC2)CC1)c1ccccc1 | 7.17%
86 | COc1cccc(NC(=O)CCC2CCN(C(=O)Cc3cccc(F)c3)CC2)c1 | 5.3%
87 | O=C(COC(=O)CSc1ccc(F)cc1)NCc1ccco1 | 9.26%
